# Assay results: the BET-seq Pho4 binding data (Le et al. 2018)
# The list shows a part of the results. The energies were worked out here from pooled read counts, against the library average; single values are noisy.
# Biological target: T1, Pho4 (S. cerevisiae) (UniProt P07270)
# T1 sequence: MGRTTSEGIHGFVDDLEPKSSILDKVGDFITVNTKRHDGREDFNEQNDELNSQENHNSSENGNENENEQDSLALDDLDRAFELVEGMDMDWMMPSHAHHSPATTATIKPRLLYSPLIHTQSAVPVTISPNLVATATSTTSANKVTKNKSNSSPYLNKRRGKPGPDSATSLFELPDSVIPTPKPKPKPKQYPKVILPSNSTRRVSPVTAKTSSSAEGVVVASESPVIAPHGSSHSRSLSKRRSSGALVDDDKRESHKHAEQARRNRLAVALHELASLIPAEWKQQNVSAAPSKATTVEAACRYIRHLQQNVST
# Assay: relative binding free energy (BET-seq); higher = weaker binding
# Conditions: reference: library average
row,Sequence,relative binding free energy
1,CGGGTCACGTGATTGA,0.23 kcal/mol
2,GTTATCACGTGTACGT,0.14 kcal/mol
3,TGTTACACGTGTCTGT,0.07 kcal/mol
4,ATTGACACGTGATTGA,0.02 kcal/mol
5,ATTAGCACGTGGGCGA,-0.21 kcal/mol
6,AATATCACGTGTGTTC,0.1 kcal/mol
7,TGAGTCACGTGCGCTT,0.02 kcal/mol
8,ATAAGCACGTGAGGCG,0.06 kcal/mol
9,ATTGTCACGTGTTATG,0.05 kcal/mol
10,TGGCTCACGTGTTTGT,0.18 kcal/mol
11,AATAGCACGTGGTAAA,0.05 kcal/mol
12,TTATCCACGTGTGATG,0.09 kcal/mol
13,GCGATCACGTGTGGAG,0.29 kcal/mol
14,TTGTGCACGTGATGTG,0.06 kcal/mol
15,AGTTTCACGTGTAAAG,0.19 kcal/mol
16,GTTTTCACGTGTCGTA,0.31 kcal/mol
17,AGGATCACGTGTGGCG,0.01 kcal/mol
18,CTTATCACGTGTTGAG,0.19 kcal/mol
19,TCGTGCACGTGTTGGT,-0.05 kcal/mol
20,GAATTCACGTGTGAGT,0.27 kcal/mol
21,AAGGACACGTGGAAGT,0.16 kcal/mol
22,TCAAGCACGTGGTTTT,-0.08 kcal/mol
23,CGAAGCACGTGTGGTA,0 kcal/mol
24,GGATACACGTGGTTGA,0 kcal/mol
25,TTTTACACGTGAGCGG,0.32 kcal/mol
26,GGGAGCACGTGGGGTT,-0.23 kcal/mol

row,Sequence,relative binding free energy
1,ATCTTCACGTGGGCGG,0.05 kcal/mol
2,GCGTGCACGTGGTGAG,-0.09 kcal/mol
3,CTTGTCACGTGGGTCG,-0.1 kcal/mol
4,CGAAGCACGTGGTGGT,-0.26 kcal/mol
5,TACAACACGTGGGGTG,-0.21 kcal/mol
6,TCATACACGTGGTTTA,-0.06 kcal/mol
7,GAGTGCACGTGTTCGG,-0.12 kcal/mol
8,AGTAACACGTGCGTTT,0.03 kcal/mol
9,GGGTGCACGTGGAAGG,0.17 kcal/mol
10,GTGGCCACGTGTATGT,-0.06 kcal/mol
11,GTAGGCACGTGATGGC,0 kcal/mol
12,TTTTCCACGTGCTGTT,0.07 kcal/mol
13,GTGGTCACGTGACGGA,0.19 kcal/mol
14,GGGGTCACGTGGCGAT,0.07 kcal/mol
15,AGGTGCACGTGAAATG,0.22 kcal/mol
16,TAAGGCACGTGGTGCG,-0.17 kcal/mol
17,AGTAACACGTGTCGTT,0 kcal/mol
18,GTAAGCACGTGCTTTA,0.05 kcal/mol
19,TCTTGCACGTGTCGTG,0.08 kcal/mol
20,TAGTACACGTGGGATG,-0.01 kcal/mol
21,ACTTGCACGTGAGTGG,0.15 kcal/mol
22,TTAGTCACGTGAATAT,0.28 kcal/mol
23,TCTGACACGTGGATGG,0.02 kcal/mol
24,ATTCACACGTGGTGTT,-0.1 kcal/mol
25,GTTCACACGTGGATGA,0.24 kcal/mol
26,AAATGCACGTGAGGTT,0.26 kcal/mol

row,Sequence,relative binding free energy
1,TAAAGCACGTGATGTT,0.08 kcal/mol
2,ATGTTCACGTGCTTGT,0.19 kcal/mol
3,ATTGGCACGTGTCTAG,-0.04 kcal/mol
4,GGTAGCACGTGTGTTT,0 kcal/mol
5,TAGTGCACGTGTATGC,-0.08 kcal/mol
6,GCAGACACGTGGGGTA,-0.12 kcal/mol
7,GGGTACACGTGCGAGT,0.09 kcal/mol
8,TGTGGCACGTGTGGTT,0 kcal/mol
9,GGGAACACGTGTTGTA,0 kcal/mol
10,TTTTACACGTGAGAGT,0.27 kcal/mol
11,TCTTTCACGTGGTGTA,0.19 kcal/mol
12,AGTGTCACGTGGATTG,-0.02 kcal/mol
13,GATTTCACGTGGGCGT,0.34 kcal/mol
14,GGCTTCACGTGTAGGG,0.25 kcal/mol
15,ATTCGCACGTGTGTGG,0.01 kcal/mol
16,TGGTTCACGTGTGACT,0.32 kcal/mol
17,TACGTCACGTGAGGGG,0.38 kcal/mol
18,GTGTTCACGTGCGGTC,0.35 kcal/mol
19,TCGGTCACGTGTATCG,0.14 kcal/mol
20,TTCGGCACGTGATTAG,-0.1 kcal/mol
21,TCTTTCACGTGTTACT,0.26 kcal/mol
22,GTCGGCACGTGTTTAT,0.14 kcal/mol
23,AGATCCACGTGTGGAT,0.23 kcal/mol
24,CTTGCCACGTGGGGTT,-0.38 kcal/mol
25,CTTGACACGTGGGTTG,-0.14 kcal/mol
26,GGCATCACGTGGGTAT,0.1 kcal/mol

row,Sequence,relative binding free energy
1,GAGTACACGTGGTTTT,0.07 kcal/mol
2,TGGATCACGTGTCAGG,0.21 kcal/mol
3,TTTATCACGTGCTGTA,0.14 kcal/mol
4,GGGGGCACGTGTTGGC,0.03 kcal/mol
5,AGTAGCACGTGCGGGG,-0.09 kcal/mol
6,ACTGTCACGTGGTCGG,0.03 kcal/mol
7,TTAATCACGTGTTCGT,0.17 kcal/mol
8,AATAGCACGTGTCGGT,-0.04 kcal/mol
9,CTGTTCACGTGGGAGG,0.19 kcal/mol
10,CGCGGCACGTGTCGGT,-0.05 kcal/mol
11,AGTTGCACGTGAGGCT,0.16 kcal/mol
12,GTGAACACGTGTTAGG,-0.05 kcal/mol
13,CTGTACACGTGGGCGG,-0.14 kcal/mol
14,TAATGCACGTGAGGCT,0.15 kcal/mol
15,AAAGGCACGTGTTAGG,-0.05 kcal/mol
16,TAGGTCACGTGCGGTA,0.01 kcal/mol
17,TTTGTCACGTGGTGGA,0.11 kcal/mol
18,TTGGTCACGTGCTGTG,0.05 kcal/mol
19,TGTCCCACGTGTAGGT,0.02 kcal/mol
20,AGTTCCACGTGTGAGG,-0.04 kcal/mol
21,TAAGTCACGTGGGTGC,-0.08 kcal/mol
22,ACTATCACGTGGTTGT,0.21 kcal/mol
23,GTGATCACGTGGTATT,0.09 kcal/mol
24,TAAGTCACGTGGGACT,-0.03 kcal/mol
25,GTGTGCACGTGAATAG,0.35 kcal/mol
26,GCTAACACGTGTGTGG,-0.01 kcal/mol

row,Sequence,relative binding free energy
1,GGGCCCACGTGGGTGG,-0.23 kcal/mol
2,TGTTGCACGTGGTCTG,-0.29 kcal/mol
3,TAGGGCACGTGGGTTG,-0.22 kcal/mol
4,TCAAGCACGTGTGTTT,-0.06 kcal/mol
5,TCGGTCACGTGATGGG,0.22 kcal/mol
6,TGGTGCACGTGCGCGG,-0.17 kcal/mol
7,GACGCCACGTGTGGGT,0.05 kcal/mol
8,CTCGTCACGTGTTAGT,0.08 kcal/mol
9,GGGGACACGTGTATAA,0.11 kcal/mol
10,ATGAGCACGTGTGCAT,-0.05 kcal/mol
11,TGAGACACGTGGAGGA,-0.03 kcal/mol
12,TGGTGCACGTGGGCGG,-0.15 kcal/mol
13,AATGACACGTGGGTGG,-0.03 kcal/mol
14,TGGGACACGTGGGGTG,-0.07 kcal/mol
15,GCATTCACGTGGTGTG,0.16 kcal/mol
16,TCGTGCACGTGGTTCG,-0.15 kcal/mol
17,GGTTGCACGTGCGCGG,-0.01 kcal/mol
18,AGAGGCACGTGGTCTG,-0.19 kcal/mol
19,GGTTTCACGTGGAGCG,0.45 kcal/mol
20,TTATACACGTGTCAGT,-0.08 kcal/mol
21,GTGGCCACGTGTCTTG,0.02 kcal/mol
22,TGTGTCACGTGCTGTG,-0.01 kcal/mol
23,ATGTTCACGTGATCGT,0.18 kcal/mol
24,GCGGACACGTGGTTTT,0.02 kcal/mol
25,TGGGGCACGTGCGGCT,-0.21 kcal/mol
26,GGAGGCACGTGCGTAT,-0.13 kcal/mol

row,Sequence,relative binding free energy
1,CGATTCACGTGAGGGG,0.3 kcal/mol
2,GTGGTCACGTGATCAG,0.46 kcal/mol
3,AGGGGCACGTGAGACG,-0.12 kcal/mol
4,ATTTTCACGTGCGTTG,0.21 kcal/mol
5,AGTTTCACGTGCTCGG,0.24 kcal/mol
6,GAGGTCACGTGAGATA,0.43 kcal/mol
7,TGCGGCACGTGGGGTA,-0.26 kcal/mol
8,GTGTACACGTGTACGT,0.15 kcal/mol
9,TTATACACGTGGTGTG,0.01 kcal/mol
10,TATTCCACGTGAGTTT,0.2 kcal/mol
11,TAGCTCACGTGGGTTA,0.15 kcal/mol
12,ATTTCCACGTGATTTG,0.27 kcal/mol
13,TATTTCACGTGGAGCG,0.34 kcal/mol
14,TGTAGCACGTGGTATA,-0.09 kcal/mol
15,TGTTACACGTGTAGTT,0.1 kcal/mol
16,TATTACACGTGGAGGA,0 kcal/mol
17,CCATGCACGTGTGTGG,-0.01 kcal/mol
18,TCTTACACGTGTTAGA,0.19 kcal/mol
19,TAGGTCACGTGCGGGC,0.02 kcal/mol
20,ATTTTCACGTGGAGTA,0.23 kcal/mol
21,GAATCCACGTGGGTGT,-0.03 kcal/mol
22,AGGTACACGTGTTATG,0.04 kcal/mol
23,AGGCGCACGTGGGGTA,-0.33 kcal/mol
24,GTAGTCACGTGAATAA,0.42 kcal/mol
25,GGCGTCACGTGGCGGA,0.2 kcal/mol
26,GGGTCCACGTGTGGGA,0.08 kcal/mol

row,Sequence,relative binding free energy
1,GTGCCCACGTGTGGGG,-0.11 kcal/mol
2,TTATGCACGTGTATGT,0 kcal/mol
3,GGATGCACGTGTGGTT,0.12 kcal/mol
4,GGTATCACGTGGAGCG,0.13 kcal/mol
5,CTTAGCACGTGGTGTG,-0.14 kcal/mol
6,TATTTCACGTGATTAG,0.27 kcal/mol
7,GAGGTCACGTGAGCGG,0.26 kcal/mol
8,TGTGGCACGTGAGTCT,0.2 kcal/mol
9,ATACGCACGTGGGTTG,-0.15 kcal/mol
10,ATAGTCACGTGGGGTG,-0.1 kcal/mol
11,AACGTCACGTGGGTTG,0.03 kcal/mol
12,GGCTACACGTGGGGAT,-0.07 kcal/mol
13,TTCATCACGTGGGAGG,0.03 kcal/mol
14,GCTTTCACGTGAGGGG,0.3 kcal/mol
15,GGTGCCACGTGCAGGG,-0.22 kcal/mol
16,GGTATCACGTGTAGGA,0.19 kcal/mol
17,CTATGCACGTGGTCGT,-0.12 kcal/mol
18,TGTTACACGTGGCAAT,0.06 kcal/mol
19,TTTTGCACGTGCATAT,-0.09 kcal/mol
20,GGAGCCACGTGTGGAG,0 kcal/mol
21,CTGTACACGTGAAGGG,0.32 kcal/mol
22,ACGGTCACGTGCGGGT,0.03 kcal/mol
23,GAGGGCACGTGGTAGA,-0.11 kcal/mol
24,GTAGTCACGTGGTAAA,0.07 kcal/mol
25,AGCAGCACGTGGTGTG,-0.21 kcal/mol
26,TCTTACACGTGGGGGC,0.08 kcal/mol

row,Sequence,relative binding free energy
1,ATTGTCACGTGATTGA,0.2 kcal/mol
2,TTAAACACGTGATAGT,0.09 kcal/mol
3,GTGAGCACGTGTAGTA,0.01 kcal/mol
4,TTTGTCACGTGTATGG,0.22 kcal/mol
5,TAATGCACGTGCGGAT,0.03 kcal/mol
6,TGTCGCACGTGTTTCA,-0.03 kcal/mol
7,GTGGCCACGTGGCAGT,-0.1 kcal/mol
8,TTCTGCACGTGATGCG,0.14 kcal/mol
9,GGGTGCACGTGACGTG,0.1 kcal/mol
10,TGTAACACGTGGTATT,-0.01 kcal/mol
11,GTTGACACGTGAAGAG,0.33 kcal/mol
12,ACGGACACGTGCGGGG,0.06 kcal/mol
13,CTTTTCACGTGTCGTG,0.1 kcal/mol
14,TCAGTCACGTGGCTGT,0.07 kcal/mol
15,GTGGCCACGTGGAATG,0.13 kcal/mol
16,TCATACACGTGTGATA,0.17 kcal/mol
17,TGTACCACGTGATGGG,-0.07 kcal/mol
18,ATAGGCACGTGAAGGA,0.12 kcal/mol
19,TGGTACACGTGGTTTA,0.08 kcal/mol
20,TGTTGCACGTGAGTGT,0.2 kcal/mol
21,GGGTGCACGTGGCAGC,-0.09 kcal/mol
22,GTATGCACGTGATAGA,0.02 kcal/mol
23,ATGTGCACGTGGAATG,-0.01 kcal/mol
24,GTATACACGTGCTAGG,0.02 kcal/mol
25,ACGGTCACGTGAGGTT,0.29 kcal/mol
26,AATTTCACGTGAGAGG,0.47 kcal/mol

row,Sequence,relative binding free energy
1,GTCTTCACGTGGAAGG,0.39 kcal/mol
2,GGTGACACGTGAGTAG,0.22 kcal/mol
3,AATTACACGTGCGGTT,0.05 kcal/mol
4,TCGGACACGTGTGCGT,0.02 kcal/mol
5,AGAGGCACGTGACGTT,-0.06 kcal/mol
6,GTCGGCACGTGGGGAT,-0.14 kcal/mol
7,TTATGCACGTGGAGGT,0.09 kcal/mol
8,AATCGCACGTGTTGTT,-0.21 kcal/mol
9,TTAATCACGTGATAAG,0.31 kcal/mol
10,AAGGTCACGTGGCCGT,0.02 kcal/mol
11,AAGCGCACGTGTAGTG,0 kcal/mol
12,GGATGCACGTGGCGTT,0.03 kcal/mol
13,TCTTTCACGTGGAGTT,0.24 kcal/mol
14,CGTTTCACGTGGATGG,0.18 kcal/mol
15,GTTGGCACGTGAATCA,0.14 kcal/mol
16,GTTTTCACGTGGAAAT,0.45 kcal/mol
17,TAGTTCACGTGGACTG,0.25 kcal/mol
18,TTCCTCACGTGTGGAG,0.35 kcal/mol
19,ATGTTCACGTGTGCTG,0.25 kcal/mol
20,AACATCACGTGTTTTT,0.21 kcal/mol
21,ATTATCACGTGCGAGG,0.2 kcal/mol
22,TGGCACACGTGGTGTG,-0.07 kcal/mol
